Laboratory results reported in PubChem BioAssay AID1347055 (National Center for Advancing Translational Sciences (NCATS), 2019).
“And” between values parts separate entries of the source, which are not always exact repeats. Identical values can stand only once. Hit rate of the full screen: of about 54,000 compounds, about 120 (0.22%) were called active. The shares of active, inactive and inconclusive entries below differ from those in the screen. Calls come from the whole dose curve; as a rule, active = well fitted inhibition curve with a large enough effect; inconclusive = small, poorly fitted or top-dose-only effect, or effect the other way; inactive = flat fitted curve, though single readings scatter. A potency beside an inconclusive call is a rough fit, not a confirmed value.

molecular target: Fumarate hydratase, mitochondrial (Homo sapiens) (UniProt P07954); assay: Identification of activators of human fumarate hydratase by quantitative high-throughput screening; conditions: FH coupled MDH/diaphorase resazurin fluorescence, 15 min; activity change, negative = inhibition: at 79.9 µM (top of the series); note: the screen sought activators but most active calls are inhibition curves; nearly all actives have a fitted effect of over 45% in size
% is set by controls: 0 for no effect and ±100 for the full control effect; potency is the fitted concentration of half-maximal effect; tags give direction and shape of the fitted curve.

Chain of UniProt P07954 (P07954 whole entry, looked up): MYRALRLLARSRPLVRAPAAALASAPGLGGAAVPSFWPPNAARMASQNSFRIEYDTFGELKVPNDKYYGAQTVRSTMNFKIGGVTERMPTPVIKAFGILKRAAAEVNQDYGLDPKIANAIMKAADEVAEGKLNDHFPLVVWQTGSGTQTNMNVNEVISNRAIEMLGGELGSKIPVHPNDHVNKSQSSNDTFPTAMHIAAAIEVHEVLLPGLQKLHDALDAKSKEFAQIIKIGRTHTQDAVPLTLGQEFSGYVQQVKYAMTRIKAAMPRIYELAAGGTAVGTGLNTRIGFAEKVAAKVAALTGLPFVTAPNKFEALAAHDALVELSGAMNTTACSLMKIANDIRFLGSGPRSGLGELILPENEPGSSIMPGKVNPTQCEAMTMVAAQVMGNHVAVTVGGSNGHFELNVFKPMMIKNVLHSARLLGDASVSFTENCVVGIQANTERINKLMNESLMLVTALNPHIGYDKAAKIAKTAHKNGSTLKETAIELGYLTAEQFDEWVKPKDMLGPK

| SMILES | Potency | activity change, negative = inhibition |
| --- | --- | --- |
| Cc1cc(C(=O)Cn2cc(C#N)ccc2=O)c(C)n1Cc1ccccc1 | inactive |  |
| CCn1cc2nc(SCc3cccc(C)c3)n(CCc3ccccc3)c(=O)c2n1 | active: 39.8 µM |  |
| COc1ccc(OC)c(NC(=O)c2c(NCc3ccc(N(C)C)cc3)sc3c2CCCC3)c1 | inconclusive: 31.6 µM [inhibitor, partial curve] |  |
| COc1ccc(NC(=O)c2oc3ccccc3c2NC(=O)C23CC4CC(CC(C4)C2)C3)cc1 | inconclusive: 35.5 µM [inhibitor, partial curve] |  |
| COc1ccc(S(=O)(=O)N(CC(=O)Nc2ccc3c(c2)OCO3)c2ccc(C)cc2)cc1 | inconclusive: 31.6 µM [inhibitor, partial curve] |  |
| O=C(O)c1ccc(NC(=O)[C@H](CC2CCCC2)n2cnc(C(F)(F)F)c2)nc1 | inactive |  |
| COc1ccccc1NC(=O)CN1C(=O)CCSc2ccccc21 | inactive |  |
| NS(=O)(=O)c1cc(-c2nn[nH]n2)c(NCc2cccs2)cc1Cl | inconclusive: 19.5 µM [inhibitor, single point] |  |
| CCC(C)NC(=O)CSCc1nc(-c2ccc(C)cc2)oc1C (stereo not drawn) | inactive |  |
| COc1c2c(c(C)c3c1C(=O)OC3)OC1(C)CC(O)C34OC(OC)(CC(O)C3(C)C1C2)OC4(C)C (stereo not drawn) | inactive |  |
| CCN1C(=O)c2ccccc2Sc2ccc(NC(=O)c3cccc(C)c3)cc21 | inconclusive: 35.5 µM [inhibitor, partial curve, poor fit] |  |
| COc1cc(OC)c(N(C)C(=O)CSc2c3c(nc4ccc(Cl)cc24)CCCC3)cc1Cl | inconclusive: 28.2 µM [inhibitor, single point] |  |
| CC(=O)c1cccc(NC(=O)CCCSc2nc(-c3ccco3)cc(C(F)(F)F)n2)c1 | inconclusive: 7.94 µM [inhibitor, partial curve, poor fit] |  |
| COC(=O)c1sccc1S(=O)(=O)N(CC(=O)Nc1ccccc1C)c1ccc(Cl)cc1 | inconclusive: 28.2 µM [inhibitor, partial curve, poor fit] |  |
| CN(C)c1ccc(O)c2c1C[C@H]1C[C@H]3[C@H](N(C)C)C(=O)C(C(N)=O)=C(O)[C@@]3(O)C(=O)C1=C2O | inactive |  |
| CN1CCc2cccc3c2[C@H]1Cc1ccc(O)c(O)c1-3 | inconclusive: 15.5 µM [inhibitor, partial curve] |  |
| COc1ccccc1-c1nc2c(c(SCc3cc(C)ccc3C)n1)Cc1c(CO)cnc(C)c1O2 | inconclusive: 25.1 µM [inhibitor, single point] |  |
| Cc1ccc(N(CC(O)Cn2c3ccccc3c3ccccc32)S(=O)(=O)c2ccc(F)cc2)cc1 (stereo not drawn) | inconclusive: 25.1 µM [inhibitor, partial curve] |  |
| COc1cc(C)c(C(=O)O[C@@H]2[C@H](O)[C@@H](CO)O[C@H]2n2ccc(=O)[nH]c2=O)c(OC)c1 | inactive |  |
| CNc1nccc(-c2cccnc2Oc2cc(C(=O)Nc3cccc(C(F)(F)F)c3)ccc2C)n1 | inconclusive: 28.2 µM [inhibitor, single point] |  |
| C[C@]12CC[C@@H]3c4ccc(O)cc4CC[C@H]3[C@@H]1CC[C@@H]2OC(=O)CCC1CCCC1 | inactive and inconclusive: 50.1 µM [inhibitor, single point] |  |

| SMILES | Potency | activity change, negative = inhibition |
| --- | --- | --- |
| CCOC(=O)c1c(C)[nH]c(C)c1S(=O)(=O)NCC(=O)NCc1cccc(Br)c1 | inactive |  |
| Cc1ccccc1OCC(=O)Nc1nnc(SCc2cc(=O)n3cc(Cl)ccc3n2)s1 | inconclusive: 35.5 µM [inhibitor, partial curve, poor fit] |  |
| CCCCCc1ccc(/C=C/[C@H](O)[C@@H](CO)NC)cc1 | inactive |  |
| CCc1ccccc1Nc1cc(C(=O)NCCc2ccccc2)c2ccccc2n1 | inconclusive: 39.8 µM [inhibitor, partial curve] |  |
| COc1ccc(-c2noc(Cn3c(=O)c4ccccc4n(CC(=O)Nc4cccc(C(F)(F)F)c4)c3=O)n2)cc1 | inconclusive: 17.8 µM [inhibitor, partial curve, poor fit] |  |
| CCCCCCCCCCCCCCCC(=O)OC(CC(=O)O)C[N+](C)(C)C (stereo not drawn) | inconclusive: 39.8 µM [inhibitor, single point] |  |
| Cn1nnnc1SCCNCc1ccccc1OCc1ccc(Cl)cc1Cl | inconclusive: 28.2 µM [inhibitor, partial curve, poor fit] |  |
| Cc1cccc(C(=O)Nc2cc3c(cc2N2CCOCC2)n(C)c(=O)n3C)c1 | inconclusive: 25.1 µM [inhibitor, partial curve] |  |
| Cc1cc(C)c(S(=O)(=O)N2CCN(Cc3nc4ccc(C)cc4o3)CC2)c(C)c1 | inconclusive: 10 µM [inhibitor, full curve] |  |
| COc1cccc(CNc2ncc(-c3ccc(Br)cc3)n2C)c1 | inconclusive: 35.5 µM [inhibitor, partial curve, poor fit] |  |
| CC(C)c1ccc(NC(c2nnc(-c3ccccc3)o2)c2ccc(F)cc2Cl)cc1 (stereo not drawn) | inconclusive: 25.1 µM [inhibitor, single point] |  |
| CC(=O)c1cc(-c2ccccc2)n(CCC(=O)Nc2ccc(C(C)C)cc2)c1C | inconclusive: 39.8 µM [inhibitor, partial curve] |  |
| Cc1ccccc1CN1C(=O)C(O)(CC(=O)c2ccccc2)c2cc(Cl)ccc21 (stereo not drawn) | inconclusive: 31.6 µM [inhibitor, single point] |  |
| CCN(CCO)CCCOc1ccc2c(Nc3cc(CC(=O)Nc4cccc(F)c4)[nH]n3)ncnc2c1 | inconclusive: 22.4 µM [activator, partial curve] |  |
| O=C(Cc1ccccc1)N(Cc1cccnc1)c1nc2ccc(Cl)cc2s1 |  | inconclusive: -32.9% [inhibitor] |
| COc1ccc(NC(=O)c2ccc3c(SCC(=O)O)c4c(nc3c2)CCCC4)cc1OC | inconclusive: 50.1 µM [inhibitor, partial curve, poor fit] |  |
| CCCOc1ccc(C(=O)Nc2ccc3oc(-c4ccc5ccccc5c4)nc3c2)cc1 | inactive |  |
| Cc1cccc(C(c2sc3nc(-c4ccco4)nn3c2O)N2CCN(Cc3ccccc3)CC2)c1 (stereo not drawn) | inconclusive: 44.7 µM [inhibitor, partial curve, poor fit] |  |
| Cc1ccc(C)c(NC(=O)N(C)CCc2c(C)nn(C)c2C)c1 | inactive |  |
| O=C(O)c1ccc(Nc2nc(-c3ccccc3)c3cc(Br)ccc3n2)cc1 | inconclusive: 28.2 µM [inhibitor, single point] |  |
| Cc1ccc2cc3cc(C(=O)N4CCN(c5cccc(C(F)(F)F)c5)CC4)sc3nc2c1 | inactive |  |

| SMILES | Potency | activity change, negative = inhibition |
| --- | --- | --- |
| CCOC(=O)c1cc(-c2ccccc2)n(CCC(=O)Nc2ccc(C(F)(F)F)cc2)c1C | inconclusive: 22.4 µM [inhibitor, partial curve, poor fit] |  |
| CCOc1ccc(Nc2c(S(=O)(=O)c3ccc(Cl)cc3)cnc3ccc(OC)cc23)cc1 | inconclusive: 28.2 µM [inhibitor, single point] |  |
| Cc1ccc(-n2nnc(-c3nsc(NC(=O)c4ccccc4C)n3)c2C)cc1Cl | inconclusive: 10 µM [activator, full curve, poor fit] |  |
| O=C(Nc1ccc(F)cc1)N1CCN(c2ccc3nnc(-c4ccc(F)cc4)n3n2)CC1 | inconclusive: 35.5 µM [inhibitor, single point] |  |
| CCOC(=O)CC(NC(=O)CCc1c(C)nc2c(-c3ccccc3)c(C)nn2c1C)c1ccc(C)cc1 (stereo not drawn) | inactive |  |
| COc1ccc(-c2c3c(=O)n(C)c(=O)n(C)c3cn2-c2cccc(N)c2)cc1 | inconclusive: 50.1 µM [inhibitor, single point] |  |
| CCOc1cc(CNCCSc2nnnn2C)ccc1OCc1ccc(Cl)cc1Cl | inconclusive: 28.2 µM [inhibitor, partial curve, poor fit] |  |
| CCc1ccc(S(=O)(=O)NCc2cccn2Cc2cccc(C)c2)cc1 | inconclusive: 20 µM [inhibitor, single point] |  |
| COc1ccc(-c2nc3ccccc3n2Cc2ccc(C(C)C)cc2)cc1 | inconclusive: 31.6 µM [inhibitor, single point] |  |
| Cc1cccn2c(=O)c3cc(C(=O)NC(C)C)n(C)c3nc12 | inconclusive: 39.8 µM [inhibitor, partial curve] |  |
| COc1ccc(CCNC(=O)C(=O)NCC(c2ccco2)S(=O)(=O)c2cccs2)cc1 (stereo not drawn) |  | inconclusive: -33.2% [inhibitor] |
| COc1ccccc1-c1cc(C(F)(F)F)nc(S(=O)(=O)CCCC(=O)Nc2ccccc2F)n1 | inconclusive: 31.6 µM [inhibitor, partial curve, poor fit] |  |
| Cc1cccc(-c2nc(SCC(=O)NCC3CCCO3)c3c(=O)n(C)c(=O)n(C)c3n2)c1 (stereo not drawn) | inconclusive: 11.2 µM [inhibitor, single point] |  |
| C#CCn1c(/C=C/c2ccc(Cl)cc2)nc2ccccc21 | inactive |  |
| COc1ccc(C(=O)NCC(c2cccs2)S(=O)(=O)c2ccc(F)c(C)c2)cc1 (stereo not drawn) | inactive |  |
| O=C(NCCN1CCC(n2c(=O)[nH]c3ccccc32)CC1)c1cc2cc(F)ccc2[nH]1 | inactive |  |
| Clc1cccc(N2CCN(c3ncnc4c3nc3n4CCCC3)CC2)c1 | inactive |  |
| CCOC(=O)c1c(S(=O)(=O)NCC(=O)Nc2ccc(Cl)c(C(F)(F)F)c2)c(C)n(C)c1C | inconclusive: 20 µM [inhibitor, partial curve, poor fit] |  |
| CCOc1ccc2nc(SCCN3CCOCC3)[nH]c2c1 | inactive |  |
| CC(C)c1nnc(NC(=O)c2nc(SCc3ccc(F)cc3)ncc2Cl)s1 | inactive |  |
| CCCCN(C)CC(O)Cn1cc(/C=C/C(=O)c2ccc(OC)c(OC)c2)c2ccccc21 (stereo not drawn) | inactive |  |
